Reference: patent US9393247B2, “Heteroaryl derivatives as alpha7 nAChR modulators” (Lupin Limited, priority 2011, dated 2016)
Some of these results come from one statement about several compounds together.

Biological target: T1, α7nAChR (Homo sapiens, UniProt P36544)
T1 construct: human IMR-32 cells with native expression of α7nAChR; endogenous in cells; host or cells: IMR-32 (human neuroblastoma)
Experiment: Cell-based real-time kinetic FLIPR Ca2+ assay, potentiation of agonist response (fold PAM activity)
Conditions: 1 μM test compound, fold increase in response to agonist PNU-282987 (10 μM), human IMR-32 cells with native α7nAChR, intracellular Ca2+

T1 sequence (P36544 23-502): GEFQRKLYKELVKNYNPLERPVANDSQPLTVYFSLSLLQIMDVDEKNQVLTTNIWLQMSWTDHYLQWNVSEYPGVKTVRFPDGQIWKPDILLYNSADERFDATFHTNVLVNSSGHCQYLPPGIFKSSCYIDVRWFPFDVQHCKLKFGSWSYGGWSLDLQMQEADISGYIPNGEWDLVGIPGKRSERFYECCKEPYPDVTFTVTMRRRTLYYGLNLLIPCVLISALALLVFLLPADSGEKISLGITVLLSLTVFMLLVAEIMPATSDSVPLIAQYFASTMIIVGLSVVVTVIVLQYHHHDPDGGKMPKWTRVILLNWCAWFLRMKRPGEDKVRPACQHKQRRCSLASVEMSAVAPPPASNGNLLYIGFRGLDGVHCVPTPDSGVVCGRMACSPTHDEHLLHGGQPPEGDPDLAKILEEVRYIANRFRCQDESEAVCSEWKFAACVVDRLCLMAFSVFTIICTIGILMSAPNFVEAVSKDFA

Compound	Fold activation at 1 μM conc. (Group)
CCOc1cccc(-c2sc(C(=O)CC)c(-c3ccc(S(N)(=O)=O)cc3)c2C)c1 [Compound 15, 4-(5-(3-Ethoxyphenyl)-4-methyl-2-propionylthiophen-3-yl)benzenesulfonamide]	A (compounds with activity below 5 folds are grouped as A)
CCC(=O)c1sc(-c2ccc(CC)cc2)c(C)c1-c1ccc(S(N)(=O)=O)cc1 [Compound 16, 4-(5-(4-Ethylphenyl)-4-methyl-2-propionylthiophen-3-yl)benzenesulfonamide]	C (the compounds with activity above 15 folds are grouped as C)
CCC(=O)c1sc(-c2ccc(Cl)c(Cl)c2)c(C)c1-c1ccc(S(N)(=O)=O)cc1 [Compound 17, 4-(5-(3,4-Dichlorophenyl)-4-methyl-2-propionylthiophen-3-yl)benzenesulfonamide]	A (compounds with activity below 5 folds are grouped as A)
CCC(=O)c1sc(-c2ccc(Cl)cc2Cl)c(C)c1-c1ccc(S(N)(=O)=O)cc1 [Compound 18, 4-(5-(2,4-Dichlorophenyl)-4-methyl-2-propionylthiophen-3-yl)benzenesulfonamide]	B (the compounds with activity between 5.1 folds and 15 folds are grouped as B)
CCC(=O)c1sc(-c2ccc(F)cc2F)c(C)c1-c1ccc(S(N)(=O)=O)cc1 [Compound 19, 4-(5-(2,4-Difluorophenyl)-4-methyl-2-propionylthiophen-3-yl)benzenesulfonamide]	B (the compounds with activity between 5.1 folds and 15 folds are grouped as B)
CCC(=O)c1sc(-c2ccc(F)c(Cl)c2)c(C)c1-c1ccc(S(N)(=O)=O)cc1 [Compound 20, 4-(5-(3-Chloro-4-fluorophenyl)-4-methyl-2-propionylthiophen-3-yl)benzenesulfonamide]	A (compounds with activity below 5 folds are grouped as A)
CCC(=O)c1sc(-c2ccc(OC)c(Cl)c2)c(C)c1-c1ccc(S(N)(=O)=O)cc1 [Compound 21, 4-(5-(3-Chloro-4-methoxyphenyl)-4-methyl-2-propionylthiophen-3-yl)benzene sulfonamide]	A (compounds with activity below 5 folds are grouped as A)
CCC(=O)c1sc(N2CCNCC2)c(C)c1-c1ccc(S(N)(=O)=O)cc1 [Compound 22, 4-(4-methyl-5-(piperazin-1-yl)-2-propionylthiophen-3-yl)benzenesulfonamide]	A (compounds with activity below 5 folds are grouped as A)
CCC(=O)c1sc(N2CCN(c3ccc(F)cc3)CC2)c(C)c1-c1ccc(S(N)(=O)=O)cc1 [Compound 23, 4-(5-(4-(4-Fluorophenyl)piperazin-1-yl)-4-methyl-2-propionylthiophen-3-yl)benzene sulfonamide]	A (compounds with activity below 5 folds are grouped as A)
CCC(=O)c1sc(N2CCOCC2)c(C)c1-c1ccc(S(N)(=O)=O)cc1 [Compound 24, 4-(4-methyl-5-morpholino-2-propionylthiophen-3-yl)benzenesulfonamide]	A (compounds with activity below 5 folds are grouped as A)
CCC(=O)c1sc(-c2ccncc2)c(C)c1-c1ccc(S(N)(=O)=O)cc1 [Compound 25, 4-(4-methyl-2-propionyl-5-(pyridin-4-yl)thiophen-3-yl)benzenesulfonamide]	A (compounds with activity below 5 folds are grouped as A)
CCC(=O)c1sc(-c2cccnc2)c(C)c1-c1ccc(S(N)(=O)=O)cc1 [Compound 26, 4-(4-methyl-2-propionyl-5-(pyridin-3-yl)thiophen-3-yl)benzenesulfonamide]	A (compounds with activity below 5 folds are grouped as A)
CCC(=O)c1sc(-c2ccoc2)c(C)c1-c1ccc(S(N)(=O)=O)cc1 [Compound 27, 4-(5-(Furan-3-yl)-4-methyl-2-propionylthiophen-3-yl)benzenesulfonamide]	A (compounds with activity below 5 folds are grouped as A)
CCC(=O)c1sc(-c2ccc3[nH]ccc3c2)c(C)c1-c1ccc(S(N)(=O)=O)cc1 [Compound 28, 4-(5-(1H-indol-5-yl)-4-methyl-2-propionylthiophen-3-yl)benzenesulfonamide]	A (compounds with activity below 5 folds are grouped as A)
CCC(=O)c1sc(-c2ccc3c(ccn3C)c2)c(C)c1-c1ccc(S(N)(=O)=O)cc1 [Compound 29, 4-(4-methyl-5-(1-methyl-1H-indol-5-yl)-2-propionylthiophen-3-yl)benzenesulfonamide]	A (compounds with activity below 5 folds are grouped as A)
CCC(=O)c1sc(-c2ccc3occc3c2)c(C)c1-c1ccc(S(N)(=O)=O)cc1 [Compound 30, 4-(5-(Benzofuran-5-yl)-4-methyl-2-propionylthiophen-3-yl)benzenesulfonamide]	B (the compounds with activity between 5.1 folds and 15 folds are grouped as B)

Compound	Fold activation at 1 μM conc. (Group)
CCC(=O)c1sc(-c2ccc3c(c2)CCN3)c(C)c1-c1ccc(S(N)(=O)=O)cc1 [Compound 31, 4-(5-(Indolin-5-yl)-4-methyl-2-propionylthiophen-3-yl)benzenesulfonamide]	A (compounds with activity below 5 folds are grouped as A)
CCC(=O)c1sc(-c2ccc(N3CCN(C)CC3)cc2)c(C)c1-c1ccc(S(N)(=O)=O)cc1 [Compound 32, 4-(4-methyl-5-(4-(4-methylpiperazin-1-yl)phenyl)-2-propionylthiophen-3-yl)benzenesulfonamide]	A (compounds with activity below 5 folds are grouped as A)
CCC(=O)c1sc(-c2ccc(Cl)cc2)cc1-c1ccc(S(N)(=O)=O)cc1 [Compound 33, 4-(5-(4-chlorophenyl)-2-propionylthiophen-3-yl)benzenesulfonamide]	A (compounds with activity below 5 folds are grouped as A)
CCC(=O)c1sc(-c2ccc(Cl)cc2)c(N(C)C)c1-c1ccc(S(N)(=O)=O)cc1 [Compound 34, 4-(5-(4-chlorophenyl)-4-(dimethylamino)-2-propionylthiophen-3-yl)benzenesulfonamide]	A (compounds with activity below 5 folds are grouped as A)
CCC(=O)c1sc(-c2ccc(Cl)cc2)c(CN(C)C)c1-c1ccc(S(N)(=O)=O)cc1 [Compound 35, 4-(5-(4-chlorophenyl)-4-((dimethylamino)methyl)-2-propionylthiophen-3-yl)benzenesulfonamide]	A (compounds with activity below 5 folds are grouped as A)
Cc1c(-c2ccc(Cl)cc2)sc(C(=O)N(C)C)c1-c1ccc(S(N)(=O)=O)cc1 [Compound 36, 5-(4-Chlorophenyl)-N,N,4-trimethyl-3-(4-sulphamoylphenyl)thiophene-2-carboxamide]	A (compounds with activity below 5 folds are grouped as A)
CON(C)C(=O)c1sc(-c2ccc(Cl)cc2)c(C)c1-c1ccc(S(N)(=O)=O)cc1 [Compound 37, 5-(4-Chlorophenyl)-N-methoxy-N,4-dimethyl-3-(4-sulphamoylphenyl)thiophene-2-carboxamide]	A (compounds with activity below 5 folds are grouped as A)
CCCN(CCO)C(=O)c1sc(-c2ccc(Cl)cc2)c(C)c1-c1ccc(S(N)(=O)=O)cc1 [Compound 38, 5-(4-Chlorophenyl)-N-(2-hydroxyethyl)-4-methyl-N-propyl-3-(4-sulphamoylphenyl)thiophene-2-carboxamide]	A (compounds with activity below 5 folds are grouped as A)
Cc1c(-c2ccc(Cl)cc2)sc(C(=O)N2CCCCC2)c1-c1ccc(S(N)(=O)=O)cc1 [Compound 39, 4-(5-(4-Chlorophenyl)-4-methyl-2-(piperidine-1-carbonyl)thiophen-3-yl)benzene sulfonamide]	A (compounds with activity below 5 folds are grouped as A)
CC(=O)c1sc(-c2ccc(Cl)cc2)c(C)c1-c1ccc(S(N)(=O)=O)cc1 [Compound 40, 4-(2-Acetyl-5-(4-chlorophenyl)-4-methylthiophen-3-yl)benzenesulfonamide]	B (the compounds with activity between 5.1 folds and 15 folds are grouped as B)
COC(=O)c1sc(-c2ccc3c(c2)CC(=O)N3)c(C)c1-c1ccc(S(N)(=O)=O)cc1 [Compound 42, Methyl 4-methyl-5-(2-oxoindolin-5-yl)-3-(4-sulfamoylphenyl)thiophen-2-carboxylate]	A (compounds with activity below 5 folds are grouped as A)
CCOC(=O)c1sc(-c2ccc3c(c2)CC(=O)N3)c(C)c1-c1ccc(S(N)(=O)=O)cc1 [Compound 43, Ethyl 4-methyl-5-(2-oxoindolin-5-yl)-3-(4-sulfamoylphenyl)thiophen-2-carboxylate]	A (compounds with activity below 5 folds are grouped as A)
CCC(=O)c1sc(-c2ccc(NC)cc2)c(C)c1-c1ccc(S(N)(=O)=O)cc1 [Compound 44, 4-(4-Methyl-5-(4-methylaminophenyl)-2-propionylthiophen-3-yl)benzenesulfonamide]	C (the compounds with activity above 15 folds are grouped as C)
CCC(=O)c1sc(-c2ccc(Cl)cc2)c(C)c1-c1ccc(S(=O)(=O)N2CCCCC2)cc1 [Compound 48, 1-(5-(4-chlorophenyl)-4-methyl-3-(4-(piperidin-1-ylsulfonyl)phenyl)thiophen-2-yl)propan-1-one]	A (compounds with activity below 5 folds are grouped as A)
CCC(=O)c1c(-c2ccc(S(N)(=O)=O)cc2)c(C)c(-c2ccc(Cl)cc2)n1C [Compound 49, 4-(5-(4-chlorophenyl)-1,4-dimethyl-2-propionyl-1H-pyrrol-3-yl)benzenesulfonamide]	C (the compounds with activity above 15 folds are grouped as C)
Cc1c(-c2ccc(S(N)(=O)=O)cc2)c(C(=O)N(C)C)n(C)c1-c1ccc(Cl)cc1 [Compound 50, 5-(4-chlorophenyl)-N,N,1,4-tetramethyl-3-(4-sulfamoylphenyl)-1H-pyrrole-2-carboxamide]	A (compounds with activity below 5 folds are grouped as A)
